Out of some 310,000 compounds screened, about 14,000 (4.5%) showed an effect of 50% or more. The effect is printed as a negative number. The list shows a part of the results.
molecular target: human ether-à-go-go-related gene (hERG) potassium channel (human, UniProt Q12809); assay: primary screen, population patch clamp on CHO cells stably expressing hERG
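Note: peak tail current of the secondary pulse compared with the same well before compound.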

Sequence of human ether-à-go-go-related gene (hERG) potassium channel (Q12809 whole entry, looked up): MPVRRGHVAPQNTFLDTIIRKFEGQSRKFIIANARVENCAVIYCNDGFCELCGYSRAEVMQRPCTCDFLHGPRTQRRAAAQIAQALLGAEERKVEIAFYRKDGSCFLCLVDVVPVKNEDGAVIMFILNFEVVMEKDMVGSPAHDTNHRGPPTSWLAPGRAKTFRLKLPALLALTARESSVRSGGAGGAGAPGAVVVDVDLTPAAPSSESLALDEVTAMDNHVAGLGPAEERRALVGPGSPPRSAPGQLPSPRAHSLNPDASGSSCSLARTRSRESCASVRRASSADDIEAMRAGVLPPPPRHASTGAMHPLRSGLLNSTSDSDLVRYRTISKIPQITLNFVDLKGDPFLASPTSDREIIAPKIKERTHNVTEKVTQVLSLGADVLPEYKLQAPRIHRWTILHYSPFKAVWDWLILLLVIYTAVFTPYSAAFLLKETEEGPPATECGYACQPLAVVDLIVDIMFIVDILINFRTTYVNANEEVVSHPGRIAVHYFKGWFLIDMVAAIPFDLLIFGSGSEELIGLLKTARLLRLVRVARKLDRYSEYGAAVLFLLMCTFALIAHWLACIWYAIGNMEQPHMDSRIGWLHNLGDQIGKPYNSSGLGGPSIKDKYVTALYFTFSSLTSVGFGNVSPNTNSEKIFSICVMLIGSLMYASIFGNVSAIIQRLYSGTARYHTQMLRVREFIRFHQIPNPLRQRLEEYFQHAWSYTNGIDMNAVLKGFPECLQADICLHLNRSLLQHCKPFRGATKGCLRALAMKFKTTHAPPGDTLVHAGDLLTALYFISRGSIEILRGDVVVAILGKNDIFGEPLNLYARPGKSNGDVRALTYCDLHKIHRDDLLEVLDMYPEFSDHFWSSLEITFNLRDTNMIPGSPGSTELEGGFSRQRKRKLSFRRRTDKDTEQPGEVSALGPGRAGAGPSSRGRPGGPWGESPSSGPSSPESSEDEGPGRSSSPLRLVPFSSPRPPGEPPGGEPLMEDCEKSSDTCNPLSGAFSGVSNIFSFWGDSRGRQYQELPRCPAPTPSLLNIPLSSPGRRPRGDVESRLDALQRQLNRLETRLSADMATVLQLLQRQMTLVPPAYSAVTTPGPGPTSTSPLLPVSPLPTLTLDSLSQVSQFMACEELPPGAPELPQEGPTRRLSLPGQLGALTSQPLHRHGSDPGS

Row | Structure (SMILES) | hERG current change (%, negative = inhibition) at 10uM [%]
1 | Cc1cc(C)c(NC(=O)NC2CCCCC2)c(C)c1 | 7.47
2 | CC(C)c1ccc(C2c3[nH]c4ccccc4c3C[C@H]3C(=O)N(c4ccccc4C(=O)N4CCC[C@@H]4C(=O)O)C(=O)N23)cc1 (some centres unmarked) | 7.36
3 | O=C(c1cc(-c2ccncc2)nc2ccccc12)N1CCN(c2ccccc2O)CC1 | -64.3
4 | Cc1ccc(Oc2nnc(-c3cccs3)c3ccccc23)cc1C | -5.3
5 | Cc1ccc(S(=O)(=O)N2CCN(C(=O)C3CSC4(C)CCC(=O)N34)CC2)cc1C (centres unmarked) | -13.8
6 | COC(=O)CSc1nnc(CNC(=O)c2ccc(S(=O)(=O)N3CCCCC3)cc2)n1C | 9.59
7 | O=C1/C(=C/c2cccc([N+](=O)[O-])c2)Oc2cc(O)ccc21 | 27
8 | Cc1cc(C)n2nc(C(=O)NC3CCCc4ccccc43)nc2n1 (centres unmarked) | 15.1
9 | N#CCc1nnc2n1-c1ccccc1CCC2 | -9.5
10 | COc1c(C)cc(C(=O)C2CCCN(Cc3cnc(N4CCOCC4)s3)C2)cc1C (centres unmarked) | -8.64
11 | COC(=O)C1=C(C)OC(N)=C(C#N)C1c1ccsc1 (centres unmarked) | -0.334
12 | O=C1c2cccc3c(Cl)ccc(c23)C(=O)N1O | 11.1
13 | Cc1cc(C)nc(/N=C(\N)Nc2ccc(S(N)(=O)=O)cc2)n1 | 14.9
14 | O=C(CSc1nc2[nH]ncc2c(=O)[nH]1)Nc1ccc(Cl)c(Cl)c1 | 6.06
15 | Cc1[nH][nH]c(=O)c1C(c1ccc(-c2cccc(Cl)c2)o1)c1c(C)[nH][nH]c1=O | -2.76
16 | COC(=O)c1c(NC(=O)CSc2nnc3ccccn23)sc2c1CCC2 | -45.5
17 | COc1ccccc1C1(CC(=O)O)CCOC(C(C)C)C1 (centres unmarked) | -28.1
18 | COc1ccc(C2N(c3cc(Cl)ccc3OC)C(=O)C3CCCN32)c(OC)c1 (centres unmarked) | -4.23
19 | COc1ccc(OC)c(/C=N/NC(=O)Cc2nc3ccccc3[nH]2)c1 | 5.63

Row | Structure (SMILES) | hERG current change (%, negative = inhibition) at 10uM [%]
20 | CC(C)c1ccc(C(C)NCCS(=O)(=O)c2ccc(Cl)cc2)cc1 (centres unmarked) | -25.8
21 | COC(=O)c1ccc(/C=C/c2c(-c3ccc(OC)cc3)oc3ccc(N4CCOCC4)cc23)cc1 | 25.7
22 | COCCSc1ccccc1C(=O)N1CCc2ccccc21 | 15.1
23 | CCC(C)NC(=O)C1CCC(=O)N(c2ccc3c(c2)OCO3)C1c1ccc(OC)cc1 (centres unmarked) | 11.9
24 | CC1(C)CC(=O)C(C=NCC(N)=O)=C(O)C1 | -19.5
25 | O=C1Nc2c(ccc(Cl)c2Cl)C(=O)C1(F)c1ccccc1 (centres unmarked) | 1.54
26 | O=C(O)c1cc2c(cc1NC(=O)C1CCCC1)OCCO2 | 12.9
27 | CC(=O)c1ccccc1NC(=O)CCCNC(=O)c1ccc(Cl)cc1 | -20.1
28 | COc1ccccc1C(=O)C1CCCN(C(=O)Nc2ccccc2F)C1 (centres unmarked) | 37.3
29 | CCOC(=O)C(=O)N=Nc1c(O)[nH]c2ccccc12 | 2.03
30 | N#CC1=C(N)C(C#N)(C#N)[C@H](c2ccsc2)[C@H]2COCC=C12 | -10.9
31 | O=C(Nc1ccc(Oc2ccc(S(=O)(=O)N3CCOCC3)cn2)cc1)c1ccco1 | -1.73
32 | CC(C)(C)c1cc(C(=O)N/N=C/c2ccc([N+](=O)[O-])s2)n[nH]1 | 9.21
33 | Clc1ccc(CNc2ccc(CNc3ncn[nH]3)cc2)c(Cl)c1 | 5.43
34 | CCc1ccc(NC(=O)CSc2ccccn2)cc1 | -9.68
35 | COc1ccc(-c2nc(N=Nc3ccc(O)cc3)n[nH]2)cc1 | -4.36
36 | COc1ccc2oc(-c3ccc(C)c(NC(=O)CSc4ccc(Cl)cc4)c3)nc2c1 | 10.8
37 | CCc1ccc(NC(=O)c2ccccc2NC(=O)C2CCCO2)cc1 (centres unmarked) | -18.3
38 | C=CCN(C(=O)CCC(=O)Nc1cc(C)on1)C(C(=O)NC1CCCC1)c1ccc(Cl)cc1 (centres unmarked) | -56.3

Row | Structure (SMILES) | hERG current change (%, negative = inhibition) at 10uM [%]
39 | COc1ccc(N2CCN(C3CC(=O)NC3=O)CC2)cc1 (centres unmarked) | 6.47
40 | CSc1cccc(NC(=O)c2cc(S(=O)(=O)N3CCCCC3)c[nH]2)c1 | 14.7
41 | COc1cc(NC(=O)C2CCC(CNS(=O)(=O)c3csc(C(N)=O)c3)CC2)cc(OC)c1 (centres unmarked) | 16.5
42 | N#Cc1c(NC(=O)c2ccncc2)sc2c1CCC2 | 4.22
43 | COC(=O)c1ccc(C(=O)Nc2nc3cc(N)c(C)cc3s2)cc1 | 24
44 | Cc1ccc(/C=N/NC(=O)CNC(=O)c2cccs2)o1 | 39.3
45 | CCOc1cc2c(cc1OCC)CN(C(=O)c1cccc(S(=O)(=O)N3CCCC3)c1)CC2 | -8.98
46 | COc1ccc(C2Nc3ccccc3C(=O)N2c2ccc(F)cc2)cc1Cn1nnc2ccccc21 (centres unmarked) | -6.35
47 | CC(C)CN1CCN(Cc2cc(F)ccc2-n2cccn2)CC1CCO (centres unmarked) | -6.87
48 | Cc1cccn2cc(CCNS(=O)(=O)c3cccc([N+](=O)[O-])c3)nc12 | -14
49 | COc1cc(C(=O)NCCC(=O)NC2CCCCC2)cc(OC)c1OC | 13.8
50 | CC(C)NC(=O)c1c(CSc2ccc(Cl)cc2)noc1C(=O)NCc1ccccc1 | 2.92
51 | Cn1c(SCC(=O)NC2CC2)nnc1C1CC1 | -10.2
52 | COc1ccc(OC)c(C(c2nnnn2C2CCCC2)N2CCN(c3ccc(F)cc3)CC2)c1 (centres unmarked) | -40.7
53 | Cc1ccc2c(c1)C(O)(C1COC(C)(C)CC1=O)C(=O)N2C (centres unmarked) | -6.72
54 | COC(=O)COc1ccc(/C=N/NC(=O)CN(c2ccccc2OC)S(=O)(=O)c2ccccc2)cc1 | -32.7
55 | O=c1[nH]c(/C=C/c2ccc(OC(F)F)cc2)nc2c1cnn2-c1ccccc1 | 23.4
56 | S=C(Nc1ccc(OCc2ccccc2)cc1)Nc1cccc(Cl)c1Cl | 1.73

Source: article PMC4336329 (PLoS ONE, 2015)
